The target of this test is T1, biotinylated truncated STAT6 (123-632)-avi (Homo sapiens, UniProt P42226).
T1 sequence (P42226 123-632 limits assumed): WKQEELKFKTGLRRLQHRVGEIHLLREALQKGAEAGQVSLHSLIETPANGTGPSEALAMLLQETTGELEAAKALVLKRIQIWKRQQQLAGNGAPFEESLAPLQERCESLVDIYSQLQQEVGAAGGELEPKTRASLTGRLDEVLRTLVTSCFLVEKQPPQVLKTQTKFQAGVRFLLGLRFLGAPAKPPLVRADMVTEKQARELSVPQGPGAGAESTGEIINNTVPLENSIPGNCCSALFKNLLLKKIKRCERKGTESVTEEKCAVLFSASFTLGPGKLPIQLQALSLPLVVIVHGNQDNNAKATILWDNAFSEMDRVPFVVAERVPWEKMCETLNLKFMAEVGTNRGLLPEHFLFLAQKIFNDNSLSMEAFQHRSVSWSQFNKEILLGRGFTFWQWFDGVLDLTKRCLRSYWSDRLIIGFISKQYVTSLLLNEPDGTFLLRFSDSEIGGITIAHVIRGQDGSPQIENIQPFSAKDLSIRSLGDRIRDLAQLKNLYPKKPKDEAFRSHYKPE
Description: Homogenous Time-Resolved Fluorescence (HTRF) binding assay. Conditions: 0.15 nM biotinylated truncated STAT6 (123-632)-avi, 20 nM fluorescein-labeled probe, 30 minutes at room temperature. In general terms: In TR-FRET formats the signal depends on donor and acceptor labels being close together.

Turning to `COc1ccncc1-c1cc(C2=CCCN(C(=O)CCn3ccnn3)C2)c(F)c2[nH]c(C(=O)N3CCN(c4ccc(F)c(OC)n4)CC3)cc12` [Example I-444], the IC50 – broadly, the midpoint of a concentration-inhibition curve – was under 100 nM.
Then `COc1ccncc1-c1cc(C2=CCCN(C(=O)CCn3ccnn3)C2)c(F)c2[nH]c(C(=O)N3CCN(c4ncc(C(F)(F)F)cc4OC)CC3)cc12` [Example I-445], with under 100 nM.
Compound `COc1cc(C(F)(F)F)cnc1N1CCN(C(=O)c2cc3c(-c4cnc5ccccc5c4OC)cc(C4=CCCN(C(=O)CCn5ccnn5)C4)c(F)c3[nH]2)CC1` [Example I-446] registered an IC50 of 1000 to 10000 nM.
In turn, `COc1c(-c2cc(C3=CCCN(C(=O)CCn4ccnn4)C3)c(F)c3[nH]c(C(=O)N4CCN(c5ncccc5OC5CC5)CC4)cc23)cnc2ccccc12` [Example I-447] gave an IC50 of under 100 nM.
The same measure for `COc1ccccc1N1CCN(C(=O)c2cc3c(-c4cnc5ccccc5c4OC)cc(C4=CCCN(C(=O)CCn5ccnn5)C4)c(F)c3[nH]2)CC1` [Example I-448]: under 100 nM; for `COc1c(-c2cc(C3=CCCN(C(=O)CCn4ccnn4)C3)c(F)c3[nH]c(C(=O)N4CCN(C5CC5)CC4)cc23)cnc2ccccc12` [Example I-449]: under 100 nM; for `COc1ccncc1-c1cc(C2=CCCN(C(=O)CCn3ccnn3)C2)c(F)c2[nH]c(C(=O)N3CCN(c4ccc(Cl)cc4OC)CC3)cc12` [Example I-450]: under 100 nM.
Consider `COc1cccnc1C1=CCN(C(=O)c2cc3c(-c4cnc5ccccc5c4OC)cc(C4=CCCN(C(=O)CCn5ccnn5)C4)c(F)c3[nH]2)CC1` [Example I-451], for which the IC50 was under 100 nM.
The same measure for `COc1ccncc1-c1cc(C2=CCCN(C(=O)CCn3ccnn3)C2)c(F)c2[nH]c(C(=O)N3CC=C(c4ncccc4OC)CC3)cc12` [Example I-452]: over 100000 nM; for `CCc1cnc(N2CCN(C(=O)c3cc4c(-c5cnccc5OC)cc(C5=CCCN(C(=O)CCn6ccnn6)C5)c(F)c4[nH]3)CC2)c(OC)c1` [Example I-453]: under 100 nM; for `COc1ccncc1-c1cc(C2=CCCN(C(=O)CCn3ccnn3)C2)c(F)c2[nH]c(C(=O)N3CCN(c4ncc(C(C)C)cc4OC)CC3)cc12` [Example I-454]: under 100 nM.
Then `COc1ccncc1-c1cc(C2=CCCN(C(=O)CCn3ccnn3)C2)c(F)c2[nH]c(C(=O)N3CCN(c4ncccc4OC4CC4)CC3)cc12` [Example I-456], with under 100 nM; and `COc1cnccc1-c1cc(C2=CCCN(C(=O)CCn3ccnn3)C2)c(F)c2[nH]c(C(=O)N3CCN(c4ncc(Cl)cc4OC)CC3)cc12` [Example I-457], with under 100 nM.
`COc1ccncc1-c1cc(C2=CCCN(C(=O)CCn3ccnn3)C2)c(F)c2[nH]c(C(=O)N3CCN(c4ncc(Cl)cc4OC)CC3)cc12` [Example I-458] gave an IC50 of under 100 nM.
`COc1cc(F)ccc1-c1cc(C2=CCCN(C(=O)CCn3ccnn3)C2)c(F)c2[nH]c(C(=O)N3CCN(c4ncc(Cl)cc4OC)CC3)cc12` [Example I-459] showed a half-inhibitory concentration (IC50) of under 100 nM.
In the case of `COc1cc(Cl)cnc1N1CCN(C(=O)c2cc3c(-c4cccnc4OC)cc(C4=CCCN(C(=O)CCn5ccnn5)C4)c(F)c3[nH]2)CC1` [Example I-460], the IC50 is under 100 nM.
Then `COc1cc(Cl)cnc1N1CCN(C(=O)c2cc3c(-c4cc(F)cc(F)c4OC)cc(C4=CCCN(C(=O)CCn5ccnn5)C4)c(F)c3[nH]2)CC1` [Example I-462], with 100 to 1000 nM; and `COc1ccncc1-c1cc(C2=CCCN(C(=O)CCn3ccnn3)C2)c(F)c2[nH]c(C(=O)N3CCN(c4ccc(C(F)(F)F)cc4OC)CC3)cc12` [Example I-463], with under 100 nM.
As to `COc1ccccc1-c1cc(C2=CCCN(C(=O)CCn3ccnn3)C2)c(F)c2[nH]c(C(=O)N3Cc4cnn(C)c4C3)cc12` [Example I-464], the IC50 was under 100 nM.
The same measure for `COc1ccccc1-c1cc(C2=CCCN(C(=O)CCn3ccnn3)C2)c(F)c2[nH]c(C(=O)N3CCN(c4cnccc4OC)CC3)cc12` [Example I-465]: over 100000 nM; for `CCc1ccc(OC)c(N2CCN(C(=O)c3cc4c(-c5cnccc5OC)cc(C5=CCCN(C(=O)CCn6ccnn6)C5)c(F)c4[nH]3)CC2)n1` [Example I-466]: under 100 nM; for `COc1cc(F)cnc1N1CCN(C(=O)c2cc3c(-c4cnc5ccccc5c4OC)cc(C4=CCCN(C(=O)CCn5ccnn5)C4)c(F)c3[nH]2)CC1` [Example I-468]: under 100 nM.
The compound `COc1nc(N2CCN(C(=O)c3cc4c(-c5cnc6ccccc6c5OC)cc(C5=CCCN(C(=O)CCn6ccnn6)C5)c(F)c4[nH]3)CC2)ccc1F` [Example I-469] registered an IC50 of 100 to 1000 nM.
Compound `CCOc1ccncc1-c1cc(C2=CCCN(C(=O)CCn3ccnn3)C2)c(F)c2[nH]c(C(=O)N3CCN(c4cncnc4OC)CC3)cc12` [Example I-470] yielded an IC50 of under 100 nM.
The compound `CCc1ccncc1-c1cc(C2=CCCN(C(=O)CCn3ccnn3)C2)c(F)c2[nH]c(C(=O)N3CCN(c4ccccc4OC)CC3)cc12` [Example I-471] displayed an IC50 of under 100 nM.
`CCc1ccncc1-c1cc(C2=CCCN(C(=O)CCn3ccnn3)C2)c(F)c2[nH]c(C(=O)N3CCN(c4ncc(Cl)cc4OC)CC3)cc12` [Example I-472] returned an IC50 of under 100 nM.
Then `CCc1ccncc1-c1cc(C2=CCCN(C(=O)CCn3ccnn3)C2)c(F)c2[nH]c(C(=O)N3CCN(C4CC4)CC3)cc12` [Example I-473], with under 100 nM.
The same measure for `COc1ccncc1-c1cc(C2=CCCN(C(=O)CCn3ccnn3)C2)c(F)c2[nH]c(C(=O)N3CCN(c4ccc(C#N)cc4OC)CC3)cc12` [Example I-474]: under 100 nM; for `CCc1ccncc1-c1cc(C2=CCCN(C(=O)CCn3ccnn3)C2)c(F)c2[nH]c(C(=O)N3CCN(c4ncc(F)cc4OC)CC3)cc12` [Example I-476]: under 100 nM.
For the compound `O=C(CCn1ccnn1)N1CCC=C(c2cc(-c3ccccc3OC3CC3)c3cc(C(=O)N4CCN(c5ncccc5OC5CC5)CC4)[nH]c3c2F)C1` [Example I-477], the half-inhibitory concentration (IC50) was under 100 nM.
In turn, `CCOc1ccncc1-c1cc(C2=CCCN(C(=O)CCn3ccnn3)C2)c(F)c2[nH]c(C(=O)N3CCN(c4nccnc4OC)CC3)cc12` [Example I-478] came in with an IC50 of under 100 nM.
In turn, `CCc1ccncc1-c1cc(C2=CCCN(C(=O)CCn3ccnn3)C2)c(F)c2[nH]c(C(=O)N3CCN(c4ncccc4OC4CC4)CC3)cc12` [Example I-479] came in with an IC50 of under 100 nM.
In the case of `CCc1ccncc1-c1cc(C2=CCCN(C(=O)CCn3ccnn3)C2)c(F)c2[nH]c(C(=O)N3CCN(c4cccc(OC)n4)CC3)cc12` [Example I-480], the half-maximal inhibitory concentration (IC50) is under 100 nM.
With `COc1ccncc1-c1cc(C2=CCCN(C(=O)CCn3ccnn3)C2)c(F)c2[nH]c(C(=O)N3CCN(c4ccc(C5CC5)cc4OC)CC3)cc12` [Example I-481], the IC50 is under 100 nM.
As to `COc1ccncc1-c1cc(C2=CCCN(C(=O)CCn3ccnn3)C2)c(F)c2[nH]c(C(=O)N3CCN(c4ccc(F)cc4OC)CC3)cc12` [Example I-482], the IC50 is under 100 nM.
Then `CCc1cnccc1-c1cc(C2=CCCN(C(=O)CCn3ccnn3)C2)c(F)c2[nH]c(C(=O)N3CCN(c4ncc(OC)cc4OC)CC3)cc12` [Example I-484], with over 100000 nM; and `COc1ccncc1-c1cc(C2=CCCN(C(=O)CCn3ccnn3)C2)c(F)c2[nH]c(C(=O)N3CCN(c4cc5cc[nH]c5nc4C#N)CC3)cc12` [Example I-485], with under 100 nM; and `CCOc1ccncc1-c1cc(C2=CCCN(C(=O)CCn3cccn3)C2)c(F)c2[nH]c(C(=O)N3CCN(c4cncnc4OC)CC3)cc12` [Example I-486], with under 100 nM.
Then `COc1ccccc1-c1cc(C2=CCCN(C(=O)CCn3ccnn3)C2)c(F)c2[nH]c(C(=O)N3CCN(c4nc(OC(F)F)ccc4OC)CC3)cc12` [Example I-490], with over 100000 nM; and `COc1ccncc1-c1cc(C2=CCCN(C(=O)CCn3ccnn3)C2)c(F)c2[nH]c(C(=O)N3CCN(c4nc(Cl)ccc4OC)CC3)cc12` [Example I-491], with over 100000 nM.
Then `COc1ccncc1-c1cc(C2=CCCN(C(=O)CCn3ccnn3)C2)c(F)c2[nH]c(C(=O)N3CCN(c4ccc(F)c(OC)c4F)CC3)cc12` [Example I-492], with over 100000 nM.
In the case of `COc1ccncc1-c1cc(C2=CCCN(C(=O)CCn3ccnn3)C2)c(F)c2[nH]c(C(=O)N3CCN(c4cccnc4C#N)CC3)cc12` [Example I-493], the IC50 was over 100000 nM.
Then `COc1ccccc1-c1cc(C2=CCCN(C(=O)CCn3cccn3)C2)c(F)c2[nH]c(C(=O)N3CCN(c4cc5cc[nH]c5nc4C#N)CC3)cc12` [Example I-494], with over 100000 nM; and `COc1ccccc1-c1cc(C2=CCCN(C(=O)CCn3ccnn3)C2)c(F)c2[nH]c(C(=O)N3CCN(c4ncccc4C4CC4)CC3)cc12` [Example I-495], with over 100000 nM; and `COc1ccncc1-c1cc(C2=CCCN(C(=O)CCn3ccnn3)C2)c(F)c2[nH]c(C(=O)N3Cc4cnn(C)c4C3)cc12` [Example I-496], with over 100000 nM.
The same measure for `COc1ccncc1-c1cc(C2=CCCN(C(=O)CCc3nccs3)C2)c(F)c2[nH]c(C(=O)N3CCN(c4ncccc4OC)CC3)cc12` [Example I-497]: 10000 to 100000 nM; for `COc1cc(F)cnc1N1CCN(C(=O)c2cc3c(Cl)cc(C4=CCCN(C(=O)CCn5ccnn5)C4)c(F)c3[nH]2)CC1` [Example I-499]: 10000 to 100000 nM; for `COc1ccncc1-c1cc(C2=CCCN(C(=O)CCn3ccnn3)C2)c(F)c2[nH]c(C(=O)N3CCN(c4nc(C)c(F)cc4OC)CC3)cc12` [Example I-500]: over 100000 nM.
